Experimental data from PubChem BioAssay AID1461 (National Center for Advancing Translational Sciences (NCATS), 2008).
Among all 220,000 compounds or so, about 2,300 (1%) were called active. This list was built around the results that the source calls inconclusive (neither active nor inactive); the mix of calls is not that of the screen. Calls follow the shape of the dose curve; as a rule, active = well fitted inhibition curve with a large enough effect; inconclusive = small, poorly fitted or top-dose-only effect, or effect the other way; inactive = no such curve, though single readings can be large or run the other way. Where the call is inconclusive, the potency comes from a doubtful curve fit.

Molecular target: Neuropeptide S receptor (Homo sapiens) (UniProt Q6W5P4)
Experiment: qHTS Assay for Antagonists of the Neuropeptide S Receptor: cAMP Signal Transduction; also: nearly all actives have a fitted effect of over 50% in size
Conditions: CHO-NPSR cells, cAMP TR-FRET, antagonist mode; activity change, negative = inhibition: at 38.3 µM (top of the series) unless noted
% is scaled to controls: 0 for no effect and ±100 for the full control effect; potency is read from the fitted curve at half-maximal effect; tags tell the direction and shape of the fitted curve.

Chain of UniProt Q6W5P4 (Q6W5P4 whole entry, looked up): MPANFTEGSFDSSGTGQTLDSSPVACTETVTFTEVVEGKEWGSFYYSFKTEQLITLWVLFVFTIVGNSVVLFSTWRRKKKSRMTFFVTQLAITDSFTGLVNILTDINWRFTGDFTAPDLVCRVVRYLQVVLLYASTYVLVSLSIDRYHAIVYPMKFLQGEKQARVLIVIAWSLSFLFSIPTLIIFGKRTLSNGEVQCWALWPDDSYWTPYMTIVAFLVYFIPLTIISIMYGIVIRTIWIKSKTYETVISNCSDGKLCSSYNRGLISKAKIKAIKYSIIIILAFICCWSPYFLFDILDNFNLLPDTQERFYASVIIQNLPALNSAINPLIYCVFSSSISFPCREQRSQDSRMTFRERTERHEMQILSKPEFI

Compound	Potency	activity change, negative = inhibition
COc1cc(/C=C(/C#N)c2nc3ccccc3[nH]2)ccc1OCC(=O)Nc1ccccc1C	inconclusive: 3.16 µM [inhibitor, single point]	–
COc1cc(-c2nc(-c3ccccc3)c(-c3cc([N+](=O)[O-])ccc3C)[nH]2)cc(OC)c1OC	inconclusive: 10 µM [inhibitor, partial curve]	–
Cc1ccc(NC(=O)Nc2nc3ccccc3s2)cc1NC(=O)Nc1nc2ccccc2s1	inconclusive: 20 µM [activator, single point]	–
COc1ccccc1-c1cc2nc(C)c(CCC(=O)NCc3ccc(F)cc3)c(C)n2n1	–	inactive: -58.9%
O=c1c2ccccc2nc(/C=C/c2c[nH]c3ccccc23)n1CCO	inconclusive: 15.8 µM [activator, single point]	–
C[C@@]12CCC=C[C@H]1[C@H](c1ccc3ccccc3c1Br)N(Cc1ccccc1)C2=O	inconclusive: 10 µM [inhibitor, single point]	–
Cc1cc2c(cc1C)CSC(c1ccccc1O)SC2	inconclusive: 10 µM [inhibitor, single point]	–
Cc1cc(C)c2cc(C#N)c(N3CCCC3)nc2c1	–	inactive: -7.8% [at 46.1 µM]
CCOC(=O)CNc1c(-c2ccc(Cl)cc2)nc2cnccn12	–	inactive: 0.943% [at 46.1 µM]
CN(C)/C=C(/C(=O)c1ccc(Cl)cc1)S(=O)(=O)c1ccc(Cl)cc1	–	inactive: -3.77% [at 46.1 µM]
CC1=C(C(N)=O)C(c2ccco2)C(C(N)=O)=C(C)N1	inconclusive: 5.01 µM [inhibitor, single point]	–
CCOC(=O)N1CCC(NC(=O)c2cnn3c2NC(c2ccco2)CC3C(F)(F)F)CC1 (configuration not stated)	inconclusive: 10 µM [inhibitor, partial curve]	–
CCOc1cc(CNc2ccc3[nH]c(=O)[nH]c3c2)ccc1OCC(=O)NC(C)(C)C	inconclusive: 10 µM [inhibitor, single point]	–
CCOc1ccc(OCC)c(NC(=O)c2[nH]c(C)c(C(C)=O)c2C)c1	–	inactive: 10.8% [at 46.1 µM]
O=C(COC(=O)c1cccc(S(=O)(=O)N2CCOCC2)c1)Nc1nc(-c2ccccc2Cl)cs1	–	inactive: -18.4% [at 46.1 µM]
Cc1ccc(NC(=S)/N=C(\N)Nc2nc(C)c3cc(C)ccc3n2)c(C)c1	–	inactive: 15.8%
Cc1ccc(/C=C2\Oc3c(ccc(O)c3CN3CCN(C)CC3)C2=O)cc1	active: 7.94 µM	–
CC1=CC(=O)N(c2cccc(C(F)(F)F)c2)C1c1ccc(Cl)cc1 (configuration not stated)	inconclusive: 10 µM [inhibitor, single point]	–
CCOC(=O)C1CCN(C(=O)CSc2nccc(C)n2)CC1	–	inactive: 12.4%
CCN(Cc1ccncc1)C(=O)CCc1nnc(CCC2CCCCC2)o1	–	inactive: 4.15%
Cc1cc(Nc2ccccc2)nc(-c2ccccc2O)n1	inconclusive: 10 µM [inhibitor, single point]	–
CCOC(=O)C1=C(O)/C(=C/c2cc(OC)c(OC)c(OC)c2)SC1=Nc1ccc(OC)cc1	inconclusive: 20 µM [inhibitor, single point]	–
O=C(C1CCCN(Cc2ccccc2)C1)N1CCCCC1 (configuration not stated)	–	inactive: -2.82% [at 46.1 µM]

Compound	Potency	activity change, negative = inhibition
CCn1c(SCC#N)nc2c(c1=O)C1(CCCC1)Cc1ccccc1-2	inconclusive: 10 µM [inhibitor, single point]	–
O=C(c1ccc(Br)o1)N1CCN(c2ccc3nnc(-c4ccccc4)n3n2)CC1	inconclusive: 12.6 µM [inhibitor, single point]	–
CCOC(=O)CC1C(=O)NCCN1c1nc2c(C)cccn2c(=O)c1/C=C1\SC(=S)N(CC(C)C)C1=O (configuration not stated)	active: 10 µM	–
O=C(O)c1cc2cccc(S(=O)(=O)N3CCOCC3)c2cc1O	inconclusive: 12.6 µM [activator, single point]	–
CCn1c(SCc2ccc(C)cc2)nnc1C1CCN(S(=O)(=O)c2ccc(OC)cc2)CC1	inconclusive: 10 µM [inhibitor, partial curve, poor fit]	–
CCOC(=O)COc1c(OC)cc(Cl)cc1C1Nc2ccccc2C(=O)N1c1cccc(C)c1 (configuration not stated)	inconclusive: 12.6 µM [inhibitor, partial curve]	–
O=C(O)c1cc2ncc(-c3[nH]ncc3[N+](=O)[O-])cn2n1	–	inactive: 17.6%
Cc1cc2oc(=O)cc(CN3CCN(C/C=C/c4ccccc4)CC3)c2cc1O	inconclusive: 25.1 µM [inhibitor, single point]	–
NC(=O)C1CCN(S(=O)(=O)c2cccc(S(=O)(=O)N3CCCCC3)c2)CC1	inconclusive: 5.01 µM [inhibitor, single point]	–
Cc1c(Cc2ccccc2)sc(N)c1C(N)=O	inconclusive: 12.6 µM [inhibitor, single point]	–
Cc1ccc(NC(=O)C(Cc2ccccc2)n2cccc2)cc1 (configuration not stated)	inconclusive: 12.6 µM [inhibitor, single point]	–
CCn1cc(C(=O)OCC(=O)OC2CC(C)CCC2C(C)C)c(=O)c2ccc(C)nc21 (configuration not stated)	inconclusive: 12.6 µM [inhibitor, single point]	–
NCCCCC(=O)O	inconclusive: 15.8 µM [inhibitor, single point]	–
COC(=O)c1c(C)[nH]c(C=Nc2ccc(OC)cc2)c1C	inconclusive: 15.8 µM [activator, single point]	–
O=C(O)c1ccc(N/N=C/c2ccnc3ccccc23)cc1	–	inactive: -37.1%
COc1ccccc1-c1nc(C(N)=O)c2[nH]c(=O)n(-c3cccc(C)c3)c2n1	inconclusive: 15.8 µM [inhibitor, partial curve]	–
O=S(=O)(c1ccc(Cl)s1)N1CCCc2cccc(O)c21	inconclusive: 12.6 µM [inhibitor, single point]	–
CC1(C)C=Cc2c(c3c(c4c(=O)c(-c5ccc(O)cc5)coc24)OC(C)(C)CC3)O1	inconclusive: 10 µM [inhibitor, single point]	–
CCOC(=O)NC(=O)c1cn(Nc2ncc(C(F)(F)F)cc2Cl)c(=O)[nH]c1=O	–	inactive: 12.4%
COc1cc2[nH]c(=O)n(CCCCCC(=O)N3CCN(c4ccccn4)CC3)c(=O)c2cc1OC	–	inconclusive: -34.2% [inhibitor] [at 46.1 µM]
CCOC(=O)c1c(C)[nH]c(C(=O)COC(=O)c2ccc(F)c(S(=O)(=O)N3CCOCC3)c2)c1C	inconclusive: 25.1 µM [activator, single point]	–
Cc1ccc(-n2c(N)c(C(=O)NCc3cccnc3)sc2=S)cc1	–	inactive: -3.57% [at 46.1 µM]
CCn1c(NCc2cc(Cl)ccc2O)nc2ccccc21	inconclusive: 10 µM [inhibitor, single point]	–

Compound	Potency	activity change, negative = inhibition
COc1cccc(CC2(CO)CCCN(Cc3[nH]c4ccc(C)cc4c3C)C2)c1 (configuration not stated)	inconclusive: 10 µM [activator, single point]	–
COC(=O)c1sccc1NC(=O)CSc1ccccc1NS(=O)(=O)c1ccc(Cl)cc1	inconclusive: 12.6 µM [inhibitor, partial curve]	–
O=C(N/N=C/c1cccc(O)c1)c1ccc(COc2ccc3c(c2)CCC3)o1	inconclusive: 12.6 µM [inhibitor, single point]	–
Clc1ccc2c(c1)C(N1CCNCC1)=Nc1ccccc1O2	inconclusive: 31.6 µM [inhibitor, single point]	–
COc1ccc(NS(=O)(=O)c2cc(NC(=O)C3CC3)ccc2N2CCOCC2)cc1	–	inactive: -35.3%
CC(=O)n1cc(N(C(=O)CCl)c2ccc(C)cc2)c2ccccc21	inconclusive: 25.1 µM [inhibitor, single point]	–
C=CCN(C(=O)CSC1=NC(=O)CN1C(C)=O)c1nc(C)c(-c2ccccc2)s1	inconclusive: 3.16 µM [inhibitor, single point]	–
O=C(c1noc2c1CCc1ccccc1-2)N1CCCc2ccccc21	inconclusive: 12.6 µM [inhibitor, single point]	–
C=CCn1c2ccccc2c2nnc(SCN3C(=O)c4ccccc4C3=O)nc21	inconclusive: 10 µM [inhibitor, single point]	–
Cc1nc(NC(=O)/C=C/c2ccccc2)sc1C(=O)Nc1ccccc1	inconclusive: 12.6 µM [inhibitor, partial curve]	–
CCOc1ccccc1N(C)C(=O)c1nn(-c2ccc(OC)cc2OC)c(=O)c2ccccc12	inconclusive: 10 µM [inhibitor, single point]	–
O=C(NCCCN1CCOCC1)c1ccc(CNS(=O)(=O)c2ccc(F)cc2)cc1	inconclusive: 12.6 µM [inhibitor, single point]	–
Cc1ccc(OCc2nnc(SCC(=O)Nc3cccc4ccccc34)n2-c2ccccc2)cc1	–	inactive: -41.4%
Cc1ccccc1Cn1nnc(C(=O)Nc2cccc(C)c2C)c1N	inconclusive: 12.6 µM [inhibitor, partial curve, poor fit]	–
O=c1c2c([N+](=O)[O-])cc([N+](=O)[O-])cc2sn1-c1ccc(Br)cc1	–	inactive: 26.4%
COc1cccc(OC)c1C(=O)OCC(=O)Nc1ccc(OC(F)(F)F)cc1	inconclusive: 25.1 µM [inhibitor, single point]	–
CCc1ccc(CCC(=O)Nc2ccc(C)c(C)c2)o1	inconclusive: 0.398 µM [inhibitor, single point]	–
CCc1ccccc1NC(=O)Nc1cccn(Cc2ccc(F)cc2)c1=O	inconclusive: 25.1 µM [activator, single point]	–
Cc1nc(SC(C)C(=O)Nc2cccc(C(F)(F)F)c2)c2c(C)c(C(=O)O)sc2n1 (configuration not stated)	inconclusive: 10 µM [inhibitor, single point]	–
CC(=O)Nc1ccc(-c2cc3ccccc3o2)cc1	–	inactive: -14.9% [at 46.1 µM]
CC(C)(C)c1cc[n+](C2=C([O-])c3ccccc3C(=O)/C2=N\S(=O)(=O)c2cccs2)cc1	inconclusive: 25.1 µM [inhibitor, single point]	–
